Measurements: patent US12583836B2 (Anaxis Pharma Pty Ltd, priority 2020, dated 2026)
pKd: −log10 of the molar value.

Key:
[1] = biological target: T1, RIP1 (Homo sapiens, UniProt Q13546); assay: KINOMEscan binding assay, RIP1; conditions: equilibrium dissociation constant, class symbols
T1 construct: purchased DiscoverX (KINOMEscan service); host or cells: E. coli BL21-derived (T7 phage) or HEK293
T1 sequence (Q13546 1-671): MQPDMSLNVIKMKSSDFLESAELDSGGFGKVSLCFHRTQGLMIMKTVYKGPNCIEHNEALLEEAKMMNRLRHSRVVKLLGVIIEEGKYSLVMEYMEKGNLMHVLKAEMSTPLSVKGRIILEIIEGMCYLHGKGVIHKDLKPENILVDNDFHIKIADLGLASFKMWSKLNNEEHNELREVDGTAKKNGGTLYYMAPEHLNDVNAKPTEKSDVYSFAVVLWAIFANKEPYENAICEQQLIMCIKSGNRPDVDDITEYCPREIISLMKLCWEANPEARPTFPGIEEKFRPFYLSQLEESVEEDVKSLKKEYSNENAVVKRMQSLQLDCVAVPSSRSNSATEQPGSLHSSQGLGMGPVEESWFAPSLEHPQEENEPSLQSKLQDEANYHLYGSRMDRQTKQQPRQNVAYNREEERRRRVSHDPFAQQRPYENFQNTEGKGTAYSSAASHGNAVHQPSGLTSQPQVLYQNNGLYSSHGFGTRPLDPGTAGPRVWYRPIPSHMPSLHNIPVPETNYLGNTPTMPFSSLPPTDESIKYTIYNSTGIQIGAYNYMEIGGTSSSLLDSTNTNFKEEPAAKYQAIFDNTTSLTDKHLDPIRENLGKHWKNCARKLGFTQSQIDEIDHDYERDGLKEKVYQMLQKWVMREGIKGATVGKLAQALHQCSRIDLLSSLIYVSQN

[2] = biological target: T2, RIP3 (Homo sapiens, UniProt Q9Y572); assay: KINOMEscan binding assay, RIP3; conditions: equilibrium dissociation constant, class symbols
T2 construct: purchased DiscoverX (KINOMEscan service); host or cells: E. coli BL21-derived (T7 phage) or HEK293
T2 sequence (Q9Y572 whole entry): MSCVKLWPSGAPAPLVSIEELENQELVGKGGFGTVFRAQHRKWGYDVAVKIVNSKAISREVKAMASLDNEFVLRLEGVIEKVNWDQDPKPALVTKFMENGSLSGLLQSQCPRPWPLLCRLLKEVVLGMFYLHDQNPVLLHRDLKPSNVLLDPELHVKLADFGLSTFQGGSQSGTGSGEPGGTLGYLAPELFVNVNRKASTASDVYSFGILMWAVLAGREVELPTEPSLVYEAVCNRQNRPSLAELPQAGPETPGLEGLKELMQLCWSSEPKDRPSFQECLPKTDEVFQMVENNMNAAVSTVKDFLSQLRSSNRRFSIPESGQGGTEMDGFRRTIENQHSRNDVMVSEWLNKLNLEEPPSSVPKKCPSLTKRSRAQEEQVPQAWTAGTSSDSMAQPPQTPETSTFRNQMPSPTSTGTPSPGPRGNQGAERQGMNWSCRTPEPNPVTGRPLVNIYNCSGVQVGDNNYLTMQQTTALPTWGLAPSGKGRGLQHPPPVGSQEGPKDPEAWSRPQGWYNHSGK
Text: The Hill Slope was set to −1.

SMILES | pKd [1] | pKd [2]
CCS(=O)(=O)Nc1ccc(-c2n[nH]c(Nc3ccccn3)c2C(N)=O)cc1OCc1ccccc1 [Compound 20, 3-(3-(benzyloxy)-4-(ethylsulfonamido)phenyl)-5-(pyridin-2-ylamino)-1H-pyrazole-4-carboxamide] | < 4.52 | < 4.52
CCS(=O)(=O)Nc1ccc(-c2n[nH]c(Nc3cnccn3)c2C(N)=O)cc1OCc1ccncc1 [Compound 28, 3-(4-(ethylsulfonamido)-3-(194yridine-4-ylmethoxy)phenyl)-5-(pyrazin-2-ylamino)-1H-pyrazole-4-carboxamide] | < 4.52 | < 4.52
C[C@H](Oc1cc(-c2n[nH]c(Nc3cnccn3)c2C(N)=O)ccc1NS(=O)(=O)CC(F)(F)F)c1ccccn1 [Compound 267, 5-[(pyrazin-2-yl)amino]-3-{3-[(1S)-1-(pyridin-2-yl)ethoxy]-4-(2,2,2-trifluoroethanesulfonamido)phenyl]-1H-pyrazole-4-carboxamide] | < 4.52 | < 4.52
NC(=O)c1c(-c2ccc(NS(=O)(=O)C(F)F)c(OCc3ccc(F)c(F)c3)c2)n[nH]c1Nc1ccccn1 [Compound 226] | < 4.52 | < 4.52
CCS(=O)(=O)Nc1ccc(-c2n[nH]c(Nc3cccc(C(F)(F)F)n3)c2C(N)=O)cc1OCC(C)C [Compound 12, 3-(4-(ethylsulfonamido)-3-isobutoxyphenyl)-5-((6-(trifluoromethyl)pyridin-2-yl)amino)-1H-pyrazole-4-carboxamide] | < 4.52 | < 4.52
CCS(=O)(=O)Nc1ccc(-c2n[nH]c(Nc3ccccn3)c2C(N)=O)cc1OCc1ccc(F)cc1 [Compound 30, 3-(4-(ethylsulfonamido)-3-((4-fluorobenzyl)oxy)phenyl)-5-(pyridin-2-ylamino)-1H-pyrazole-4-carboxamide] | < 4.52 | < 4.52
CCS(=O)(=O)Nc1ccc(-c2n[nH]c(Nc3cnccn3)c2C(N)=O)cc1O[C@H](C)c1ccc(F)cc1 [Compound 193, (R)-3-(4-(ethylsulfonamido)-3-(1-(4-fluorophenyl)ethoxy)phenyl)-5-(pyrazin-2-ylamino)-1H-pyrazole-4-carboxamide] | < 4.52 | < 4.52

Other lines, results leading:

pKd [1] | pKd [2] | SMILES
< 4.52 | < 4.52 | CCS(=O)(=O)Nc1ccc(-c2n[nH]c(Nc3ccc4ccc(Cl)cc4n3)c2C(N)=O)cc1OCc1ccc(F)cc1 [Compound 138, 5-((7-chloroquinolin-2-yl)amino)-3-(4-(ethylsulfonamido)-3-((4-fluorobenzyl)oxy)phenyl)-1H-pyrazole-4-carboxamide]
< 4.52 | < 4.52 | NC(=O)c1c(-c2ccc(NS(=O)(=O)CCC(F)(F)F)c(OCc3ccc(F)cc3)c2)n[nH]c1Nc1cccc(C(F)(F)F)n1 [Compound 182, 3-(3-((4-fluorobenzyl)oxy)-4-((3,3,3-trifluoropropyl)sulfonamido)phenyl)-5-((6-(trifluoromethyl)pyridine-2-yl)amino)-1H-pyrazole-4-carboxamide]
< 4.52 | < 4.52 | NC(=O)c1c(-c2ccc(NS(=O)(=O)CC(F)(F)F)c(OCc3ccc(F)cc3)c2)n[nH]c1Nc1ccnc(C(F)(F)F)n1 [Compound 186, 3-(3-((4-fluorobenzyl)oxy)-4-((2,2,2-trifluoroethyl)sulfonamido)phenyl)-5-((2-(trifluoromethyl)pyrimidin-4-yl)amino)-1H-pyrazole-4-carboxamide]
< 4.52 | < 4.52 | CCS(=O)(=O)Nc1ccc(-c2n[nH]c(Nc3cnccn3)c2C(N)=O)cc1OCc1ccc(OC(F)(F)F)cc1 [Compound 215, 3-(4-(ethylsulfonamido)-3-((4-(trifluoromethoxy)benzyl)oxy)phenyl)-5-(pyrazin-2-ylamino)-1H-pyrazole-4-carboxamide]
< 4.52 | < 4.52 | COCCOc1cc(Nc2[nH]nc(-c3ccc(NS(=O)(=O)CCN(C)C)cc3)c2C(N)=O)ccn1 [Compound 116, 3-(4-((2-(dimethylamino)ethyl)sulfonamido)phenyl)-5-((2-(2-methoxyethoxy)pyridin-4-yl)amino)-1H-pyrazole-4-carboxamide]
